Consider 14 molecules from publication PMC12136788.

The other results are listed elsewhere or left out.

T1: UNK ZnF1-3 (human, UniProt Q9C0B0 31-174)
T1 sequence: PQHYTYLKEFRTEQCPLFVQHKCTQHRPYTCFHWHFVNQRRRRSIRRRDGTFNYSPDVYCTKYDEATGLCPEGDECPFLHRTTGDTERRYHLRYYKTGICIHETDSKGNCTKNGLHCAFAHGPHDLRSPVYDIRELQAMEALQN

B1: chr4:4237396:4237397:-_ENSG00000132406_ENST00000382753|hu_hu|FALSE|FALSE (ssRNA)
RNA: GGGAGUUCUACAGUCCGACGAUCUAAAACUUCACAUUAGGAAAUGCUAAAAACCCAGUAAUGUACAUAAUGAUAAAAUCUAAAGUGAUGAGAAAACAUAAAAUAUUUUCAUUUGGUCCUGUCACCUAACAAAACUAUCAUAAACAACAGAGGAUUGAGCAUCA
B2: 19496024_19497373_3613_CDS_ENSG00000127481_ENST00000375254|human|control|control (ssRNA)
RNA: GGGAGUUCUACAGUCCGACGAUCACCCAGAGUAUUUGCCUUGCACCUGCUAGAGCCAAUAGCCAAAACAGCAGCAAAGCCUUGCAGUUUCUCCUUGGAAGGUUUCUCAGUUGUUCCCUCUUCAUUAAAGUUUUGCAGCAAAUACAACAGAGGAUUGAGCAUCA
B3: chr4:106720893:106720894:+_ENSMUSG00000061887_ENSMUST00000030367|mus_mus|FALSE|FALSE (ssRNA)
RNA: GGGAGUUCUACAGUCCGACGAUCAAACCAACAAAAAGUGUCAUGUACAGAAAGGUCCUUUUGGGCGGGAAGAAGGUGAGAGUUUUCUGGCCGUUGACUUGAAAUAUAUUUUUGAGUUUUGUCCUUCAUGUUUUACGGAAUAAACAACAGAGGAUUGAGCAUCA
B4: chr7:107985766:107985767:+_ENSMUSG00000029461_ENSMUST00000049053|mus_hu|motif|central (ssRNA)
RNA: GGGAGUUCUACAGUCCGACGAUCCCCUAGGUAAAUUUUUGUAAGCAAGGUGCCCACUAGGUAGGAAGGCUGCAUUUAAUGCGGAUUUACUGUAAGGUCUAGGGAAGUCCUUUCCGCUUCUCUGGGCCUCAGUUUCCUCAUCUGCAACAGAGGAUUGAGCAUCA
B5: chr16:20935853:20935854:+_ENSG00000102897_ENST00000219168|hu_hu|FALSE|FALSE (ssRNA)
RNA: GGGAGUUCUACAGUCCGACGAUCAAGGGUCAAAAGACAACAAAAAAGCACACACCAAAAAACCUCACUUUAAGCAAAUCUAUAACUUGAAAAAAAAAAAGCCUAAGAAUAUUCUGAGAGUGGUACAUAGUUUUAUAGUAGCCACAACAGAGGAUUGAGCAUCA
B6: chrX:140365796:140365797:-_ENSMUSG00000031285_ENSMUST00000033642|mus_mus|mus_mus_mus_hu_False|1_78 (ssRNA)
RNA: GGGAGUUCUACAGUCCGACGAUCCUUCUCAUUACUCAGUGCCUGCAAGGUUCUGGUUCUGUAGAAGCUACAGUGGGCGCUGUGAGUGGGGCUAGGCAACCCAUUCAUCCGGGAGCCUCGCAUGUUCCUGGAUGUCUUGUCUCGCAACAGAGGAUUGAGCAUCA
B7: chr3:139075876:139075877:+_ENSG00000175110_ENST00000310776|hu_mus|FALSE|FALSE (ssRNA)
RNA: GGGAGUUCUACAGUCCGACGAUCCCAAGAUUUUUAAAUGUUCAGCUUAGUAUUACCAAAAUGGAAGGGCAUUACUAUGAAAUGUGUUUUUAACUGUUCUCAGGAUGCUGCGGAAUGACUGGUAACUAUUUCUUGAUAAGUUUGCAACAGAGGAUUGAGCAUCA
B8: chr11:87794976:87794977:-_ENSMUSG00000020483_ENSMUST00000020775|perfect_dup|FALSE|FALSE (ssRNA)
RNA: GGGAGUUCUACAGUCCGACGAUCGCAACGCCGCCUGCUUGCCAUCGCUGCCGCCGCCACGGACACCUUCGCCUCGGCCACCUAGCCCGACUUGAAGAGGAGGAUUGCAACUUGACCCAAGUAAAAAUAGAUGAAGUGCUUUGUCAACAGAGGAUUGAGCAUCA
B9: chr1:220276048:220276049:+_ENSG00000067704_ENST00000302637|hu_hu|hu_hu_hu_mus_True|98_108 (ssRNA)
RNA: GGGAGUUCUACAGUCCGACGAUCGCAAACAGCUUCAUUGGCUGGAAUUGUCCAAGGCUGGGUGGUCCAAACUAAAACGCUAACAGGGGAUGAGGCAUCUGUAAGAGACUCCAACUUCGGAGGAGGUCUCAGGAGGGGGAAUCUCAACAGAGGAUUGAGCAUCA
B10: chr17:88987509:88987510:+_ENSMUSG00000034709_ENSMUST00000038551|mus_mus|FALSE|FALSE (ssRNA)
RNA: GGGAGUUCUACAGUCCGACGAUCGGAAGGGGAGGGAAAGGGAUGGAGAGACAUGGCAAGGGAGAGACUCUUUUAAAAGGAAUCUGAGAUGUCUUUCAGUUUUCAAUUAUAGGAAGAAAUGACAAUACAGGAAGUAAUGACAUCCAACAGAGGAUUGAGCAUCA
B11: 20138503_20139230_1996_3pUTR_ENSMUSG00000044066_ENSMUST00000050611|mouse|control|control (ssRNA)
RNA: GGGAGUUCUACAGUCCGACGAUCGGCUGGUCCUGGGUGGAGCACUGAGGUCAGCAACAUCUGUGACAUUAUACAACCAGCAGAUCAGCUCUUCCAGCCGACAGCAAAAUGUCUGCACACACUGCACUAGAGAAGCUUUCUCCUCAACAGAGGAUUGAGCAUCA
B12: chr3:142137402:142137403:-_ENSG00000114127_ENST00000264951|hu_hu|FALSE|FALSE (ssRNA)
RNA: GGGAGUUCUACAGUCCGACGAUCAUCAGAUACUACGUCAACCCCCAUCUUCGUCAUGUAAUAUGUUCUUUUAUAUUGUCUAAACUCAGUUUCAAAUAGGUCAUCAUCUUCAGUCUCAUCUUCUAAAUUAUCCUUAGAAGUUAUCAACAGAGGAUUGAGCAUCA
B13: chr14:53324496:53324497:-_ENSG00000073712_ENST00000341590|hu_hu|FALSE|FALSE (ssRNA)
RNA: GGGAGUUCUACAGUCCGACGAUCAUUGUAAUGCAAAGAGUUGCAUAUUUUAGGCAGACAGUGAUUAUGCUGGUGAAUACUAAAAGUGUAAUACAAUAUGGUGUAAAAAUAAAAACACGAGACAAUAUACAUAACAUGCUUAUUCAACAGAGGAUUGAGCAUCA
B14: chr3:51263940:51263941:+_ENSMUSG00000063273_ENSMUST00000029303|mus_hu|motif|central (ssRNA)
RNA: GGGAGUUCUACAGUCCGACGAUCGUAAAAUGGAUGCUGUCGAAGUACAUCUUCUAGUUUUAAUAAGUCCACAUAUGAUCGGAGGGUAAUCUUCCUCAUACAGUAUGUAUGAAAGUCAAACUGGUCAUCAGUGAUUUCUAUAAACAACAGAGGAUUGAGCAUCA

The target in the experiment is T1, UNK ZnF1-3. The experiment is described as follows: nsRBNS (natural sequence RNA bind-n-seq); RBNS binding buffer (assumed for nsRBNS): 25 mM Tris pH 7.5, 150 mM KCl, 3 mM MgCl2, 0.01% Triton X-100, 500 ug/ml BSA, 20 U/ml SUPERase-In, 4 C; UNK is unkempt and MSI1 is Musashi-1; names of the RNAs are library labels; protein concentration not given here; high values mean tight binding.
In the case of B1, the binding signal is 0.724 enrichment R.
In the case of B2 it was 1.06 enrichment R.
On to B3, for which the binding signal was 1.41 enrichment R.
In the case of B4 it was 0.778 enrichment R; in that of B5, 2.03 enrichment R; in that of B6, 0.463 enrichment R.
In the case of B7 it was 1.24 enrichment R; in that of B8, 1.94 enrichment R; in that of B9, 2.21 enrichment R.
In the case of B10 it was 1.62 enrichment R; in that of B11, 1.3 enrichment R; in that of B12, 0.799 enrichment R.
Take B13: the binding signal is 1.15 enrichment R.
Molecule B14 gave a binding signal of 0.957 enrichment R.
